The record followed here is patent US6340697B1, “Oxime derivatives and agricultural chemicals containing the same” (Dainippon Ink and Chemicals, Inc., priority 1997, dated 2002).

Assay [1] deals with Phytophthora infestans. The arrangement: key: Grade “A” was selected when there is no plant with lesions or no withered plant; grade “B” was selected when the number of diseased plants, which include plants with lesions or withered plants, is around 10% among the total numbers of plants; Grade “C” was selected when the number of diseased plant is around 25%; grade “D” was selected when the diseased plants exceed 50%. The following applies: tomato foliage spray, effective component 250 ppm, degree of disease after 5 days. On the procedure:
(§1) The effectiveness of the compounds obtained by the present invention against various plant diseases will be hereinafter described with reference to following test examples. The status of the test plants at the time of testing the control effects of the present chemicals, that is, the degree of lesions appearing on foliage or the number of plants attacked by Phytophthora are visually observed, and the results were evaluated by four grades “A”, “B”, “C”, and “D”. Grade “A” was selected when there is no plant with lesions or no withered plant, and grade “B” was selected when the number of diseased plants, which include plants with lesions or withered plants, is around 10% among the total numbers of plants. Grade “C” was selected when the number of diseased plant is around 25%, and grade “D” was selected when the diseased plants exceed 50%.
The water-dipersable powder prepared by the method shown in Formulation Example 2 was diluted with water containing a surface active agent (0.02%) so as to contain the effective component at a concentration of 250 ppm. The thus prepared solution was sprayed on foliage at the 3 to 4 leaf stage of tomatoes (variety: Toyofuku) which were grown in plastic pots with a diameter of 9 cm. […] After 5 days, the degree of disease was determined. […]

Assay [2] has as its system Pythium aphanidermatum. The assay can be described thus: Control test of a plant disease caused by Pythium aphanidermatum (cucumber, soil drench). The following applies: cucumber seeds, soil drench 1,000 ppm, 4 days. Further details: key: Grade “A” was selected when there is no plant with lesions or no withered plant; grade “B” was selected when the number of diseased plants, which include plants with lesions or withered plants, is around 10% among the total numbers of plants; Grade “C” was selected when the number of diseased plant is around 25%; grade “D” was selected when the diseased plants exceed 50%. On the procedure:
as §1
A mixture of sterilized soil and Pythium aphanidermatum was put in a deep petri-dish with a diameter of 15 cm. After seeding 10 seeds of cucumber (variety: Nouryoku Shintokiwa) for each pot, a water-diluted dispersion of water-dispersible powder prepared according to the Formulating Example 2 at the effective component concentration of 1,000 ppm was drenched on the soil. After drenched, the pot was placed in a wet room and was subjected to a weathering instrument with a day-length of 14 hours for 4 days. The degree of the plant disease was determined. […]

Assay [3] has as its system Pyricularia oryzae. The format is in vivo. The arrangement: key: Grade “A” was selected when there is no plant with lesions or no withered plant; grade “B” was selected when the number of diseased plants, which include plants with lesions or withered plants, is around 10% among the total numbers of plants; Grade “C” was selected when the number of diseased plant is around 25%; grade “D” was selected when the diseased plants exceed 50%. The following applies: rice foliage spray, effective component 250 ppm, degree of disease after 7 days.

The subject of assay [4] is (B) metalaxyl-resistant Plasmopara viticola. The assay can be described thus: Control test of plant disease caused by Plasmopara viticola (leaf disc test), fungi (B) (Test Examples 4 and 9). As to conditions: vine leaf disc immersed 30 min at 10 ppm, cultured seven days. On the procedure:
The effectiveness of the compounds obtained by the present invention against various plant diseases will be hereinafter described with reference to following test examples. The status of the test plants at the time of testing the control effects of the present chemicals, that is, the degree of lesions appearing on foliage or the number of plants attacked by Phytophthora are visually observed, and the results were evaluated by four grades “A”, “B”, “C”, and “D”. Grade “A” was selected when there is no plant with lesions or no withered plant, and grade “B” was selected when the number of diseased plants, which include plants with lesions or withered plants, is around 10% among the total numbers of plants. Grade “C” was selected when the number of diseased plant is around 25%, and grade “D” was selected when the diseased plants exceed 50%. A leaf disc formed by stamping a leaf of an alley grown vine (variety: neo masukatto) was immersed in a chemical-containing solution which was prepared using a water-dispersible powder at an effective component concentration of 10 ppm for 30 min. […] A control test was executed by the same method as that shown in Test Example 4.

Assay [5] has as its system Pseudoperonospora cubensis (a metalaxyl resistant fungi strain). Nature of the assay: Control test of plant disease caused by Pseudoperonospora cubensis (leaf disc test; Test Examples 3 and 8). As to conditions: cucumber leaf disc immersed 30 minutes at 10 ppm, 7 days.
In assay [6] the test system is (A) metalaxyl-sensitive Plasmopara viticola. Nature of the assay: Control test of plant disease caused by Plasmopara viticola (leaf disc test), fungi (A) (Test Examples 4 and 9). As to conditions: vine leaf disc immersed 30 min at 10 ppm, cultured seven days.

`Cc1snnc1/C(=N\OCc1ccccn1)c1ccccc1` [1-(a)-1, (Z)-(5-methyl-1,2,3-thiadiazol-4-yl) phenylmethanone O-(2-pyrydyl)-methyl oxime]: the Evaluation result in assay [1], in assay [2] and in assay [3] was “A” throughout.
Take `Cc1nsnc1C(=NOCc1csc(NC(=O)C(C)C)n1)c1ccccc1` [8-(b)-7]: the Evaluation entry in assay [1] and in assay [2] was “A” in each case.
Turning to `COCC(=O)N(c1c(C)cccc1C)C(C)C(=O)OC` (stereo not shown) [Metalaxyl, metalaxyl, reference compound], the “Evaluation Metalaxyl-resistant Plasmopara viticola B” value in assay [4] was “D (grade “D” was selected when the diseased plants exceed 50%)”. Besides, the Evaluation result in assay [5] is “D (grade “D” was selected when the diseased plants exceed 50%)”.
As for manzeb [reference compound], the “Evaluation Metalaxyl-sensitive Plasmopara viticola A” value in assay [6] was “C (Grade “C” was selected when the number of diseased plant is around 25%)”. In assay [4], the “Evaluation Metalaxyl-resistant Plasmopara viticola B” value was “C (Grade “C” was selected when the number of diseased plant is around 25%)”. Also, the Evaluation result in assay [5] is given as “C (Grade “C” was selected when the number of diseased plant is around 25%)”.
